This passage reports switch fluorescence ratio results from the supplement of paper PMC10126150.

In this series the test system is ATP. Nature of the series: switch fluorescence ratio, 500 uM ATP over buffer (Cy3 cluster intensity, sum of 5 cycles each) (fold (ratio)); higher = stronger signal-on switching upon ATP binding; sequences stand for … in TCGTCGGCAGCGTCAGATGTGTATAAGAGACAGTTTTTTTTTTTTTTTTTTTTTTTTT…TC. The conditions noted are these: aptamer strand: ATP DNA aptamer (quencher-CACCTGGGGGAGTATTGCGGAGGAAGG + anchor), 100 nM annealed; ATP concentration: 500 uM; one replicate. The procedure, abridged: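 Imaging in selection buffer was followed by imaging after 15 min with 500 uM ATP at 22 °C, for Cy3-labelled switching-strand clusters annealed to 100 nM quencher-labelled ATP aptamer on a modified Illumina MiSeq flow-cell. Five of these buffer/ATP cycles ran, separated by NaOH stripping and re-annealing. The fluorescence ratio per cluster is summed target-cycle over summed buffer-cycle Cy3 intensity, averaged per switch-domain sequence; clusters outside 100-1000 RFU were removed.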

Sequences with one replicate were seen in a single cluster, so their values are uncertain.
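Note: ATP exposure 15 min at 22 °C before imaging.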

Regarding TGCGGTAGT, the switch fluorescence ratio came to 1.09.
The value for TGTCTCTTCT was 0.962.
The value for AGAACTACTT was 1.1; that for CACAGACATC was 1.27.
Next, CCTCAAACAG: 1.41; ACTGCTTCGA: 0.941.
Consider AGTCAATGGT, for which the switch fluorescence ratio is 0.998.
As to TAAAGTCGCA, the switch fluorescence ratio amounted to 0.965.
Take CGGGAGACTT: the switch fluorescence ratio was 1.01.
The value for GGTAGCTATC was 1.08; that for ACGCGACTTG was 1.02; that for TGCAATGTGG was 1.06.
Next, TTGTCCGCTG: 1.18.
As for TTTGTAGGTT, the switch fluorescence ratio turned out to be 1.07.
Take GTCGCAGTGC: the switch fluorescence ratio was determined as 2.22.
As to TAAGCACACG, the switch fluorescence ratio was 1.15.
Turning to TAAGAACATA, the switch fluorescence ratio came to 0.974.
Turning to AGTACACAGA, the switch fluorescence ratio stood at 1.09.
Next, ATCGGCCTGC: 0.865; CCCCGACTAT: 1.94.
Turning to AAAGGACTAA, the switch fluorescence ratio is 0.989.
For TTTACGGTGG, the switch fluorescence ratio came to 1.05.
On to ATCAACTGGA, for which the switch fluorescence ratio was found to be 1.13.
For TGCGGGGTAG, the switch fluorescence ratio worked out at 1.02.
For GGGGCTAGAC, the switch fluorescence ratio was 0.829.
Next, ATAATGCGT: 0.985; AGCTACATAA: 1.06.
For the sequence GTTTATACGT, the switch fluorescence ratio is 1.03.
Regarding TCTTGAAGGA, the switch fluorescence ratio is 1.02.
Turning to CTTGCCTTGA, the switch fluorescence ratio was determined as 1.
As to TGGGTACTGA, the switch fluorescence ratio is 0.978.
The value for ATTCACTATT was 1.01.
Next, CCACTTTATT: 0.999; CGCCATTATT: 0.983.
On to TGAGGATGG, for which the switch fluorescence ratio stood at 0.995.
The value for GTTTAAATGC was 1.13; that for AGTCGGACCA was 0.938; that for GACGGGTAA was 1.01.
The value for TGTATAAGCC was 0.971; that for GCCTGTAGAG was 0.994.
As for GGGCTGCAGG, the switch fluorescence ratio stood at 1.04.
For the sequence GGGGCGACTC, the switch fluorescence ratio turned out to be 0.973.
Turning to TTGCAGCAGA, the switch fluorescence ratio came to 1.37.
Regarding TCCCCAGGCT, the switch fluorescence ratio came to 2.09.
With AGTGTGCAAA, the switch fluorescence ratio is 1.03.
Next, CTGAAATGGG: 1.
For the sequence GCTAGCTTTA, the switch fluorescence ratio worked out at 1.
For GATAGTTTTA, the switch fluorescence ratio is 0.962.
AAAAGCGCTA: the switch fluorescence ratio stood at 1.02.
The value for GATTGATACC was 0.999.
For the sequence ATATTGGTCG, the switch fluorescence ratio amounted to 1.04.
For GAATTCTACC, the switch fluorescence ratio worked out at 0.993.
For the sequence TCCCCGGCTA, the switch fluorescence ratio came to 2.05.
Turning to GGAATATGTT, the switch fluorescence ratio worked out at 1.
Regarding GTGGGATGGT, the switch fluorescence ratio worked out at 0.989.
Take CAACACATGC: the switch fluorescence ratio was 1.21.
Next, TGATGTGAGT: 0.996; ATACGCTAGT: 1.
The value for AACAGATATT was 1.06.
Take GAATCTATCC: the switch fluorescence ratio is 1.11.
Next, CACAGTACCG: 1.21; GCAATGGGCC: 1.63; CTCGAATAGT: 0.984.
As to TGGGTCACCT, the switch fluorescence ratio is 1.02.
For GAGGCGAGGG, the switch fluorescence ratio is 0.99.
Turning to CCCGTGCCGG, the switch fluorescence ratio is 0.976.
Take ACATGCTGCC: the switch fluorescence ratio was 1.04.
As to AACATGACGA, the switch fluorescence ratio was 1.4.
Turning to ATGTTCCAAT, the switch fluorescence ratio is 1.
With TAGGCGCTGG, the switch fluorescence ratio turned out to be 0.99.
As to GTTACCGGGC, the switch fluorescence ratio came to 1.06.
In the case of GTTTCATCAT, the switch fluorescence ratio stood at 1.01.
With AAGGGCCACA, the switch fluorescence ratio is 1.
CAAGGGCAAT: the switch fluorescence ratio worked out at 1.94.
As to TTAGTCACGG, the switch fluorescence ratio is 0.987.
TAAGTTTCGG: the switch fluorescence ratio worked out at 1.01.
For TTTTCGAAA, the switch fluorescence ratio turned out to be 1.02.
On to TATGGAGTCA, for which the switch fluorescence ratio came to 0.995.
For GGTTGGGACC, the switch fluorescence ratio was found to be 1.02.
